Experimental data as given in PubChem BioAssay AID1460 (National Center for Advancing Translational Sciences (NCATS), 2008).
Several values for one entry are separate records, joined by “and”; a condition that tells them apart may be missing. Equal entries are not always repeated. The whole screen tested about 270,000 compounds, of which about 5,800 (2.1%) were called active. The shares of active, inactive and inconclusive entries below differ from those in the screen. The call rests on the fitted dose curve; in most records, active means well fitted inhibition curve with a large enough effect; inconclusive means small, poorly fitted or top-dose-only effect; inactive means flat fitted curve, though single readings scatter. Potencies of inconclusive entries are doubtful fits and often do not repeat.

The molecules below were run against Microtubule-associated protein tau (Homo sapiens) (UniProt P10636) (assay: qHTS for Inhibitors of Tau Fibril Formation, Thioflavin T Binding). Conditions: recombinant tau K18 P301L (four-repeat tau fragment), heparin-induced fibrillization, ThT fluorescence; series mostly up to 57.4 µM; activity, negative = inhibition: at the top concentration.
Procedure, shortened: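 Heparin-induced (20 uM) aggregation of recombinant human K18 P301L tau, 15 uM unlabeled with 0.24 uM labeled, pH 7 acetate buffer, 6 hr at 37 C with compound. Fibrils quantified by 30 uM ThT fluorescence after 1 hr ambient incubation.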
Further: nearly all actives have a fitted effect of over 55% in size.
On the % scale 0 is the no-effect control and ±100 the full control effect; potency means the concentration at half of the fitted maximal effect; tags describe the fitted curve by direction and shape.

Sequence of UniProt P10636 (P10636 whole entry, looked up, the tested form may be a part): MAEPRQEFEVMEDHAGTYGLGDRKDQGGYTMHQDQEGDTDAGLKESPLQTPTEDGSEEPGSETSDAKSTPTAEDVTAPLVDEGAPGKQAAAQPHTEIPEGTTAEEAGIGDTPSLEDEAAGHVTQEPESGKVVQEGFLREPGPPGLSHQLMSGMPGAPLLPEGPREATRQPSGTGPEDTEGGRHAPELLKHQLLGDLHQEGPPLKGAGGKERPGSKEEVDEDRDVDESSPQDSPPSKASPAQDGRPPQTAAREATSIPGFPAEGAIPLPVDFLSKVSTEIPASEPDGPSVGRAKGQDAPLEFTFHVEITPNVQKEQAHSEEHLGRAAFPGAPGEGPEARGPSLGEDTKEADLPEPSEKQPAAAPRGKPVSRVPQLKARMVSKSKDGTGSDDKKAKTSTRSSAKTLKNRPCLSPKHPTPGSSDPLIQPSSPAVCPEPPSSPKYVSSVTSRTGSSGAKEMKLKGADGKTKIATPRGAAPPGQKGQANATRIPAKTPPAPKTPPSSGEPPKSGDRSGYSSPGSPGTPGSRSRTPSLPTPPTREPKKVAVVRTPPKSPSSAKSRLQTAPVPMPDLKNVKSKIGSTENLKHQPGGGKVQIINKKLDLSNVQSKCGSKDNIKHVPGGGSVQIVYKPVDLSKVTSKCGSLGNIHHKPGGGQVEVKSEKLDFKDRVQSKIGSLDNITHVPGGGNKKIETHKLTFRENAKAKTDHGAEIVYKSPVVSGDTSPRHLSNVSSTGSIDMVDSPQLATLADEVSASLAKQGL

SMILES | Potency | activity, negative = inhibition
COc1ccc(Cn2c(SCC#N)nc3ccc(N4CCOCC4)cc3c2=O)cc1 | inconclusive: 31.6 µM [inhibitor, single point] | –
CC(C)CCN(CCC(C)C)C(CO)(CO)CO | – | inactive: -1.3%
Cc1ccc(N2C(=O)CSC2=S)cc1C | inconclusive: 6.31 µM [inhibitor, partial curve] | –
Cc1ccc(N(C)S(=O)(=O)c2ccc3[nH]cc(C(=O)O)c(=O)c3c2)cc1C | – | inactive: 1.28%
C=Cc1ccc(Cn2c(=O)n(-c3ccccc3C)c(=O)c3c4c(sc32)CN(C(C)=O)CC4)cc1 | inconclusive: 28.2 µM [inhibitor, single point] | –
COC(=O)c1c(NC(=S)Nc2cc(OC)c(Cl)cc2OC)sc2c1CCCCC2 | – | inactive: 7.9%
Cc1ccc(C(c2sc3nc(-c4ccco4)nn3c2O)N2CCCCC2)cc1 (configuration not stated) | inconclusive: 39.8 µM [inhibitor, single point] | –
Cc1sc2ncnc(Sc3nnnn3-c3ccc(Cl)cc3)c2c1C | inconclusive: 17.8 µM [inhibitor, partial curve] | –
C(=N\c1c(-c2ccccc2)nc2n1CCS2)/c1ccccc1 | active: 22.4 µM | –
Cc1cc(/C=C2\SC(=S)NC2=O)c(C)n1C1CC1 | active: 12.6 µM | –
O=S(=O)(c1ccc(Cl)cc1)c1nc(-c2ccccc2Br)oc1N1CCOCC1 | – | inactive: -4.84%
Cc1ccc2c(c1)CC1(CN2C)C(=O)OC2(CCCCC2)OC1=O | – | inactive: -9.16%
COc1ccc(Cl)cc1NC(=S)Nc1ccccc1C | – | inactive: -0.885%
CCOc1ccc2nc(N(Cc3cccnc3)C(=O)c3ccc4c(c3)OCCO4)sc2c1 | – | inactive: -7.23%
O=C(Nc1cccc(-c2nnc(-c3ccccc3)o2)c1)C1CCCO1 (configuration not stated) | inconclusive: 0.0251 µM [activator, full curve, poor fit] | –
COC(=O)c1cc2sc(C)cc2n1Cc1ccc(F)cc1Cl | – | inactive: 1.05%
COc1cccc(CSc2nc3cc(OC)c(OC)cc3c3nc(CCn4nc(C)cc4C)nn23)c1 | – | inactive: -8.6%
CCOc1ccc(-c2cn[nH]c2N)cc1 | inconclusive: 5.01 µM [inhibitor, full curve] | –
Cc1ccc(NC(=O)CCc2c(C)nn(-c3ccc(N4CCCCC4)nn3)c2C)cc1F | inconclusive: 8.91 µM [inhibitor, partial curve] | –
O=C1CC(c2ccccc2)=NN1c1ccc([N+](=O)[O-])cc1 | active: 11.2 µM | –
CCC(C)(C)n1nnnc1C(c1ccc(O)c(OC)c1)N1CCc2ccccc2C1 (configuration not stated) | inconclusive: 15.8 µM [inhibitor, partial curve] | –
S=c1[nH]nc(-c2ccccn2)n1/N=C/c1c(Cl)cccc1Cl | inconclusive: 39.8 µM [inhibitor, single point] | –
Cc1occc1C(=O)N/N=C/c1ccc(Cl)c([N+](=O)[O-])c1 | inconclusive: 10 µM [inhibitor, partial curve] | –

SMILES | Potency | activity, negative = inhibition
O=C(NC1(C(F)(F)F)NC(=O)N(CCc2ccccc2)C1=O)c1ccccc1F (configuration not stated) | – | inactive: -8.54%
C(#CC12CC3CC(CC(C3)C1)C2)CN1CCOCC1 | – | inactive: 2.68%
COc1ccc(C(=S)N2CCNCC2)cc1 | – | inactive: -9.96%
CCn1c(CCC(=O)Nc2nc3c(s2)CCCC3)nc2cc(S(=O)(=O)N(C)C)ccc21 | inconclusive: 31.6 µM [inhibitor, partial curve, poor fit] | –
Cc1cc(-c2ccc(N=Nc3ccc4c(S(=O)(=O)O)cc(S(=O)(=O)O)c(N)c4c3O)c(C)c2)ccc1N=Nc1ccc2c(S(=O)(=O)O)cc(S(=O)(=O)O)c(N)c2c1O | active: 1.41 µM | –
Cc1[nH]c2ccc(F)cc2c1CCNC(=O)c1cc2cc(Cl)ccc2oc1=O | inconclusive: 2.82 µM [inhibitor, full curve] | –
COc1ccc2c(c1)c(=O)oc1cc(O)ccc12 | inconclusive: 25.1 µM [inhibitor, single point] | –
CC1Cc2ccccc2N1S(=O)(=O)c1nnc(NC(=O)c2ccccc2Br)s1 (configuration not stated) | active: 12.6 µM | –
N#Cc1c(-c2ccccc2)no[n+]1[O-] | inconclusive: 12.6 µM [inhibitor, partial curve] and inconclusive: 28.2 µM [inhibitor, partial curve, poor fit] | –
COc1ccc(-c2csc(NC(=O)CC(C)C)n2)cc1 | inconclusive: 11.2 µM [inhibitor, partial curve, poor fit] | –
CCOC(=O)c1[nH]c2ccc(OC)cc2c1C | inconclusive: 3.98 µM [inhibitor, partial curve] | –
COc1ccc(N2CCCn3c2nc2c3c(=O)n(CCCc3ccccc3)c(=O)n2C)cc1 | inconclusive: 17.8 µM [inhibitor, single point] | –
Cn1c(=O)c2c(nc(NCCc3ccccc3)n2Cc2cccc(Br)c2)n(C)c1=O | – | inactive: 1.03%
Cc1ccc(-n2nnnc2SC(C(=O)c2c[nH]c3ccccc23)c2ccccc2)cc1 (configuration not stated) | – | inactive: 17.1%
CCOC(=O)C1=C(c2ccccc2)OC(N)=C(C#N)C1c1ccc(Cl)s1 (configuration not stated) | inconclusive: 17.8 µM [inhibitor, single point] | –
COc1ccc2c(c1)CCc1c(C(=O)Nc3c(C)nn(Cc4ccccc4Cl)c3C)noc1-2 | inconclusive: 5.62 µM [inhibitor, full curve, poor fit] | –
COC(=O)Nc1ccc(C)c2nsnc12 | inconclusive: 1.58 µM [inhibitor, full curve] | –
Cn1c(=S)[nH]c2scc(-c3cccs3)c2c1=O | inconclusive: 10 µM [inhibitor, partial curve] | –
CN(C)CCN1C(=O)C(O)=C(C(=O)c2cc3ccccc3o2)C1c1ccc(N(C)C)cc1 (configuration not stated) | inconclusive: 15.8 µM [inhibitor, partial curve] | –
COc1ccccc1N1CCN(C(=O)C2CCCCN2S(=O)(=O)c2ccc(C)cc2)CC1 (configuration not stated) | inconclusive: 39.8 µM [inhibitor, single point] | –
O=[N+]([O-])c1cc(S(=O)(=O)Nc2cccc(Cl)c2)ccc1N=Nc1c(O)[nH]c2ccccc12 | active: 10 µM | –
COc1ccc(N(C(=O)COc2ccccc2OC)S(=O)(=O)c2ccc(C)cc2)cc1 | inconclusive: 14.1 µM [inhibitor, partial curve, poor fit] | –
COc1ccc(N2CCN(C3=CC(=O)N(c4cccc(Cl)c4)C3=O)CC2)cc1 | inconclusive: 12.6 µM [inhibitor, partial curve] | –

SMILES | Potency | activity, negative = inhibition
O=S(=O)(Nc1nc2ccccc2nc1Nc1ccc2c(c1)OCO2)c1ccc(F)cc1 | inconclusive: 2.82 µM [inhibitor, full curve] | –
COc1ccc(N2CCN(CCNC(=O)c3ccc4c(c3)[nH]c(=S)n3c5ccccc5nc43)CC2)cc1 | inconclusive: 2.24 µM [inhibitor, partial curve] | –
O=C1CS/C(=N\N=C\c2ccco2)N1c1ccccc1 | inconclusive: 35.5 µM [inhibitor, single point] | –
CCS(=O)(=O)N1CCCC(C(=O)NCCc2ccc(OC)c(OC)c2)C1 (configuration not stated) | – | inactive: 0.564%
CCC1=C2CC[C@H]3C(=O)N(c4ccccc4)C(=O)[C@H]3[C@H]2[C@@]2(Cc3ccccc3)C(=NCCc3c[nH]c4ccccc34)OC(=O)N2C1=O | inconclusive: 39.8 µM [inhibitor, single point] | –
CCCOC(=O)c1c(N)sc2c1CCC2 | inconclusive: 39.8 µM [inhibitor, single point] | –
COc1cccc(-c2noc(-c3ccc(Cl)nc3)n2)c1 | inconclusive: 22.4 µM [inhibitor, partial curve, poor fit] | –
Cc1nc2cc(-c3sccc3-n3cccc3)nn2c(C)c1C | inconclusive: 39.8 µM [inhibitor, single point] | –
COC(=O)c1cc2c(ccn2-c2ccc(F)cc2)n1CC(=O)OC(C)C | inconclusive: 15.8 µM [inhibitor, partial curve] | –
Cc1ccc(-c2nc3cc(N)ccc3o2)cc1 | inconclusive: 31.6 µM [inhibitor, partial curve] | –
COc1ccc(OC)c(N2Cc3ccccc3C2)c1 | inconclusive: 22.4 µM [inhibitor, partial curve, poor fit] | –
O=C(CSc1nccn1-c1ccc(Cl)cc1)N1CCCc2ccccc21 | inconclusive: 44.7 µM [inhibitor, single point] | –
Cc1cccc(CS(=O)(=O)CC2Nc3ccc(C(=O)NCc4ccccc4)cc3NC2=O)c1 (configuration not stated) | inconclusive: 20 µM [inhibitor, single point] | –
CCOc1ccc2c(=O)c(-c3ccc4c(c3)OCCCO4)c(C)oc2c1 | inconclusive: 10 µM [inhibitor, partial curve] | –
Cc1cc(C)nc(N/N=C/C2=C(N3CCOCC3)C(=C\c3ccc(Cl)cc3)/CC2)n1 | active: 11.2 µM | –
c1c2c(cc3sc(N4CCCCC4)nc13)OCCO2 | inconclusive: 17.8 µM [inhibitor, partial curve] | –
COc1ccc(CNC(=S)N/N=C/c2ccc(O)c(OC)c2)cc1 | inconclusive: 10 µM [inhibitor, partial curve] | –
COC(=O)c1c(N2C(=O)CC(Sc3ccccc3C(=O)O)C2=O)sc2c1CCCC2 (configuration not stated) | inconclusive: 11.2 µM [inhibitor, partial curve] | –
COc1ccc(N2CCN(C(=O)Cn3cnc4sc(C)c(S(=O)(=O)N5CCC(C)CC5)c4c3=O)CC2)cc1 | inconclusive: 15.8 µM [inhibitor, partial curve] | –
CCOC(=O)c1ccc(N2C(=O)c3n[nH]c(C)c3C2c2ccc(O)c(OC)c2)cc1 (configuration not stated) | inconclusive: 3.16 µM [inhibitor, full curve] | –
CC1=C(C(=O)N2CCOCC2)C(c2ccccc2F)NC(=O)N1 (configuration not stated) | – | inactive: -2.1%
